According to paper PMC4336329 (PLoS ONE, 2015):
About 14,000 (4.5%) of roughly 310,000 compounds showed an effect of 50% or more. Effects have a minus sign here. The list shows a part of the results.

target: human ether-à-go-go-related gene (hERG) potassium channel (human, UniProt Q12809); assay: primary screen, population patch clamp on CHO cells stably expressing hERG
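Also: peak tail current of the secondary pulse compared with the same well before compound.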

Sequence of human ether-à-go-go-related gene (hERG) potassium channel (Q12809 whole entry, looked up): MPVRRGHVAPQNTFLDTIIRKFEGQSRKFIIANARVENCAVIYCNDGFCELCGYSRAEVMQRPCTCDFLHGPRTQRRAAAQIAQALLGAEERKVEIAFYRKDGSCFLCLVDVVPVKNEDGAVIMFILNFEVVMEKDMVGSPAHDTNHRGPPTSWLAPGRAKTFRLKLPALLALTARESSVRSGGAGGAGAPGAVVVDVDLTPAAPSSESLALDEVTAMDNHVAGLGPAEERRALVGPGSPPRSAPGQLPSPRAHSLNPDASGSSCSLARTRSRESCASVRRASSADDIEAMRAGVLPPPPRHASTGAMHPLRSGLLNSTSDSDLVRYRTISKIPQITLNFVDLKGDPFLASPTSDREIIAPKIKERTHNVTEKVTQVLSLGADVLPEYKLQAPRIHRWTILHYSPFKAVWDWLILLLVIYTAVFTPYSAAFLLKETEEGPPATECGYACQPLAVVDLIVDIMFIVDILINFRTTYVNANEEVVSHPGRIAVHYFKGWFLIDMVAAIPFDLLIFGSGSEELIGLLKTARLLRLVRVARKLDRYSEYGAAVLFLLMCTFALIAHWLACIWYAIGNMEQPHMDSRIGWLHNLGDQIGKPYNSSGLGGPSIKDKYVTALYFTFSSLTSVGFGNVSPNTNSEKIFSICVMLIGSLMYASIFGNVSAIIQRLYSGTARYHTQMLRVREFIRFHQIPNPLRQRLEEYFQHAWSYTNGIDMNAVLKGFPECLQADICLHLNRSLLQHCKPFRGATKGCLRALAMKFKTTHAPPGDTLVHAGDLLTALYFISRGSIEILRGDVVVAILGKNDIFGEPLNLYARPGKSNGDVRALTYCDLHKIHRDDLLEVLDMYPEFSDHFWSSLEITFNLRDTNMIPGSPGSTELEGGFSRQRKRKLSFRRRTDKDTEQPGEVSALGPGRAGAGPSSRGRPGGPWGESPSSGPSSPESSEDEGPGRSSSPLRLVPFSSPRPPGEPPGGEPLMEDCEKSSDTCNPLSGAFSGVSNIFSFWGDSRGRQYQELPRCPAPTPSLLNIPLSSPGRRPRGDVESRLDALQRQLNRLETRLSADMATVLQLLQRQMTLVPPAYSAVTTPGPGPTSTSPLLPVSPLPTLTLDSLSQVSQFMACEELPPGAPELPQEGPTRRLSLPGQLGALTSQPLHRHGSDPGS

SMILES | hERG current change (%, negative = inhibition) at 10uM [%]
COc1cc(/C(C)=N/NC(=O)Cc2c(C)[nH][nH]c2=O)ccc1O | 4.62
CCOC(=O)n1c(=O)n(C)c2ccc(Cl)cc21 | 11.1
COc1ccc(CCNc2ncnc3c2c(C)c(C)n3CCO)cc1OC | 7.98
O=C(CCCNS(=O)(=O)c1ccccc1)NCc1ccco1 | -11.7
O=C(Nc1ccccn1)c1sc2cccc(F)c2c1Cl | 16.4
CC(=O)Nc1ccccc1NC(=O)C/C(C)=N/NC(=O)C(=O)N1CCCCC1 | -13.3
Cc1ccc(-c2cc3nc(C)cc(C)n3n2)cc1 | 14.8
COc1ccc(C(=O)NC2(C(F)(F)F)C(=O)Nc3c2c(=O)[nH]c(=O)n3CCc2ccc(OC)c(OC)c2)cc1 (stereo not drawn) | -1.07
Cc1[nH]n(-c2ccccc2)c(=O)c1N=Nc1cccc(Cl)c1 | 19.5
CCCNC(=O)Nc1cccc(NC(C)=O)c1 | 16.8
O=C(COC(=O)c1ccccc1-c1nc2ccccc2s1)Nc1ccccc1C(F)(F)F | 2.21
CC(OC(=O)c1cccnc1)C(=O)NCc1ccc2c(c1)OCO2 (stereo not drawn) | -5.26
O=C(CN1CCN(C(=O)c2cccc(S(=O)(=O)N3CCCC3)c2)CC1)Nc1ccc(F)cc1 | -61.7
Cc1cc(C)cc(-n2ncc3c2CCCC3NC(=O)c2cc(C)oc2C)c1 (stereo not drawn) | 4
CCN(CC)C(=O)CSc1nc(C)cc(C)c1C#N | 22.9
Oc1ccc(Cl)cc1C=NCCc1ccccc1 | 3.36
CCc1cc2c(SCC(=O)N3CCCC3=O)ncnc2s1 | -30.3
O=C(O)C(=O)O.O=[N+]([O-])c1ccccc1OCCNCc1ccccc1 | -25.1
COc1ccccc1-c1nc2s/c(=C\c3cccs3)c(=O)n2n1 | -0.129
CC(C)(C)c1nnc(NC(=O)C2c3ccccc3Oc3ccccc32)s1 | 10.7
Cc1cc(NC(=O)CSc2nncn2-c2ccccc2)no1 | 36.1
Cc1ccc(C(=O)OCC(=O)NCc2cccs2)cc1 | 5.47
O=C(NCc1cccc(C(F)(F)F)c1)c1cc(-c2ccccc2)nn1CC1CC(c2cccnc2)=NO1 (stereo not drawn) | -52.4

SMILES | hERG current change (%, negative = inhibition) at 10uM [%]
CCOC(=O)C1CCN(C(=O)COc2ccc(Cl)cc2Cl)CC1 | -40.7
O=C(CSc1nnc(-c2ccncc2)o1)Nc1ccccc1C(F)(F)F | -0.412
Cc1ccc(CN2C(=O)CCC2C(=O)N2CCN(c3ccccc3)CC2)cc1 (stereo not drawn) | -14.2
NS(=O)(=O)c1ccc(NC(=S)N2CCN(c3ccccc3Cl)CC2)cc1 | 18.8
CC(=O)NC12CC3CC(C1)CC(C(=O)N1CCN(S(=O)(=O)c4cccs4)CC1)(C3)C2 | -12.4
Nc1ncc(-c2ccc([N+](=O)[O-])cc2)cn1 | -4.71
O=C(NCc1n[nH]c(=S)n1-c1ccc(Br)cc1)c1cccs1 | 19.7
C=CCn1c(SCc2ccccc2)nc(O)cc1=O | -14.6
c1ccc(-c2oc3ncnc(NCCCn4ccnc4)c3c2-c2ccccc2)cc1 | -69.9
CN(c1ccccc1)S(=O)(=O)c1cccc(C(=O)NNC(=O)c2ccncc2)c1 | -43
CCCn1nnnc1SCC(=O)c1ccc(NC(C)=O)cc1 | 10.3
CCN(CC)c1ccc(/C=N/Nc2nc3ccccc3[nH]2)c(O)c1 | 3.28
CCSc1nnc(NC(=O)Cc2ccc(OC)c(OC)c2)s1 | -4.78
O=S(=O)(/N=C/c1c(O)ccc2ccccc12)c1ccccc1 | 12.6
O=C(Nc1cccc(C(F)(F)F)c1)c1cccc(NS(=O)(=O)c2ccc(Br)c(C(=O)O)c2)c1 | 7.18
Cc1c(N2C(=O)/C(=C\c3ccc(N(C)C)cc3)N(C)C2=S)c(=O)n(-c2ccccc2)n1C | -11.4
COc1cc(NS(=O)(=O)c2cn(C)cn2)cc(OC)c1OC | 10.2
CN1/C(=C/C2CC(=O)NC2=O)C(C)(C)c2ccccc21 (stereo not drawn) | 3.26
CN(C)c1ccc([P+](=O)c2ccc(N(C)C)cc2)cc1 | 9.37
Cc1cccc(C)c1NC(=O)CNC(=O)C(C)NC(C)c1ccccc1Br (stereo not drawn) | -0.824
COc1ccc(C(=O)NC(=S)N(CCC(C)C)c2c(N)n(Cc3ccccc3)c(=O)[nH]c2=O)cc1 | -5.8
Cc1ccc(C(=O)NCCCN2CCOCC2)c(Cl)c1 | 13
CCCN1CCc2c(sc(NC(=S)NC(=O)c3ccccc3)c2C#N)C1 | 3.65

SMILES | hERG current change (%, negative = inhibition) at 10uM [%]
Cc1ccc(-c2csc(SCC(=O)Nc3cc(C)on3)n2)cc1 | -5.66
Cc1ccc(-n2c(SCC(=O)Nc3ccc4c(c3)OCCO4)nnc2-c2ccco2)cc1 | -30.9
N#Cc1cn(Cc2ccccc2)c(=O)[nH]c1=O | 18.3
COc1ccc2oc(=N)c(C(=O)Nc3ccc(Cl)cc3)cc2c1 | 9.18
COc1ccccc1CCC(=O)OCC(=O)Nc1cccc(S(=O)(=O)N2CCOCC2)c1 | -37.6
CC1(C)CC(NCCC(c2ccccc2)c2ccco2)CCO1 (stereo not drawn) | -52.5
O=C(COc1cccc(F)c1)NNC(=O)Cc1ccc(Br)cc1 | 7.61
CC(C)Cc1cc(C(=O)Nc2sc3c(c2C#N)CCC3)no1 | 5.42
CC1(C)CC(=O)c2cnc(N)nc2C1 | 5.2
Cc1ccccc1-c1nc(CS(=O)(=O)CC(=O)NC(C)c2ccccc2)c(C)o1 (stereo not drawn) | -8.68
Cc1ccc2c(c1)nnn2C1CCN(S(=O)(=O)c2ccc(C(=O)N(C)C)cc2)CC1 | -48
C/C(=N\NC(N)=S)C1=CCC2C3CC[C@H]4CC(O)CC[C@]4(C)C3CC[C@]12C (stereo partly drawn) | 13.6
CCOCCCNC(=O)c1ccccc1SCC | 6.98
Cc1cc(C)nc(NCc2ccc(Cl)cc2)n1.Cl | 8.68
Cc1ccc(NC(NC(=O)c2cccnc2)C(Cl)(Cl)Cl)cc1 (stereo not drawn) | -8.26
O=C1CC(=O)N(c2cccc(F)c2)C(=O)N1 | 16.1
CNc1nc2c(N)ncnc2n1[C@H]1O[C@@H](CO)[C@H](O)[C@@H]1O | 24.3
CC(C)CN=CC1=C(O)c2ccccc2C1=O | -71.4
CN1CCc2c(c3ccccc3n2Cc2ccccc2)C1.Cl | -71.2
COc1cnc(SC(C)C)[nH]c1=O | 19.8
CCn1c(=O)c([N+](=O)[O-])c(NCCc2ccc(OC)c(OC)c2)c2ccccc21 | -10.5
CCCSc1nn2c(=O)c3ccccc3nc2s1 | -22.3
CC(=O)N1N=C(c2ccc(Cl)cc2)OC12CCCC2 | -7.66

SMILES | hERG current change (%, negative = inhibition) at 10uM [%]
CCN(CC)C(=O)C(C)N(C#N)c1nc(SC)nc(N(C)C)n1 (stereo not drawn) | -31.7
Cc1cccc(CN2CCC(Oc3ccc(C(=O)N4CCCCC4)cc3)CC2)c1 | -21.9
O=C(CSc1nnc(NC(=O)C2CC2)s1)Nc1ccc(F)cc1 | 12.5
COC(=O)CCc1sc(Nc2ccccc2)nc1-c1ccc(OC)cc1 | 10.7
CSc1nc2ccccc2cc1/C=C(\C#N)c1ccc(Cl)c(Cl)c1 | 12.7
O=C(c1ccco1)N1CCN(S(=O)(=O)c2cccc(Cl)c2)CC1 | -16
COC(=O)c1ccc(-c2ccco2)n1Cc1cccc(C)c1 | 7.3
Cc1ccc(-c2noc(CCCC(=O)NC3CCCCC3)n2)cc1 | 3.58
COc1cccc(-c2csc3nnc(SCC(=O)NCc4cccs4)n23)c1 | -1.65
COc1ccc(CCNC(=O)C2CCCN(S(=O)(=O)c3ccc(OC)cc3)C2)cc1 (stereo not drawn) | -25.9
CCOC(=O)N1CCC(N(CCN(C)C)C(=S)Nc2cc(Cl)ccc2C)CC1 | -6.45
Oc1ccccc1-c1nnc2n1CCCCC2 | 12.5
COc1ccc(NC(=O)C2(S(=O)(=O)c3ccc(C)cc3)CC2)cc1 | -2.65
CC(=O)Nc1ccc(NC(=O)CCN2C(=O)C3CC=CCC3C2=O)cc1 (stereo not drawn) | 3.53
CC(C)[C@H](N)C(=O)OCCOCn1cnc2c(=O)[nH]c(N)nc21.Cl | -0.835
COc1ccc(-n2ncc3c2CC(C)(C)CC3NC(=O)c2cnc(C)cn2)cc1 (stereo not drawn) | -4.41
CN(Cc1ccccc1)S(=O)(=O)c1ccc(N2CCCC2=O)cc1 | -12.7
CCOc1cc(/C=C2\N=C(SC)SC2=O)cc([N+](=O)[O-])c1OC(C)=O | 1.02
Cc1cc(NC(=O)CSc2nc3c(cc2C#N)CCCCC3)no1 | 33.6
O=[N+]([O-])c1ccc(N/N=C\c2cccn2-c2ccccc2)nc1 | 4.86
CC[C@@]12C(=O)N(c3ccccc3)C(=O)N1[C@H](c1ccc(OC)cc1)[C@@H]1C(=O)N(C(C)(C)C)C(=O)[C@@H]12 | 24.2
